B1: OR4K15 (parent)
chain: GUUAACGGUCAUAGGCCAUGGAAACUAGGAGCACCAUUUCGCUGCCAGUGAAGAAAUGAACAAAGAAAAUCUGGGCCAGGCAGGCAUCAAAAGAAAUAGUCUUGCGCUCAACCAGAAAGUCUGUAAUCAUUUUAAGGGUA

Read counts are not given, so values of variants with three or more changes are uncertain.

In this data set the parent is B1. Briefly: self-cleavage, relative activity (ratio to wild type); higher = more cleavage; in vitro, sequencing; the parent is a self-cleaving ribozyme.
With U9C A24G A63G, the self-cleavage was 1.44.
On to C10U A33G G73U, for which the self-cleavage stood at 0.2.
The figure for U9C U37C A51G A55G A82U is 0.2; for U9C A56U U57C it is 1.37; for U9C A52G U108A U122A it is 0.03.
To U9C A52G A64G U102C U103C A129G belongs 0.54; to U9C U49C U57C A135G, 0.46; to U9C U38C U72C, 0.43.
Consider U9C G15U U70C, for which the self-cleavage was determined as 0.2.
The figure for U9C A30G U49A A91G is 1.08; for U9G A18U C40U U43G A69G G119A it is 1.36; for U9C A23G C40G A63G it is 0.85.
To A11G A47U A54G A86G A118G belongs 0.18; to U9C A54U G80C, 0.26; to U9C U57G A98G A116G, 0.47.
To U9C A33G A69U belongs 1.49; to A11C A64G A82G A95G U103C U122C, 2.5; to U9C G28C A94G A117U, 1.2.
For the variant U9C U19A U102A, the self-cleavage came out at 0.56.
As for U9C A30G A51G, the self-cleavage turned out to be 1.2.
For the variant U9C A23U A96G U127C, the self-cleavage came out at 0.48.
The figure for A11G A52G U108A U131C is 0.02; for A11C A30G A62G A66G it is 1.4.
As to C10U U103A U130C, the self-cleavage was 0.34.
Turning to U9C A55G A56G, the self-cleavage turned out to be 0.74.
In the case of A11C U26A A129U, the self-cleavage turned out to be 0.73.
The figure for U9C C25U A82U U132A is 0.27; for U9C A110G U139C it is 0.11.
As for U9C U39C A92G, the self-cleavage came to 1.82.
In the case of U9C U57A A78G, the self-cleavage was 0.19.
To U9C U38C C81U belongs 0.29.
The figure for U9C A98G U122C is 0.23; for C10U A56G A67G A69G A116G it is 0.39; for U9C G28U A47G A126C U133C it is 0.44.
Take U9G A33G A51U A69C U124A: the self-cleavage stood at 0.98.
The figure for A11G A22G A55G U102C A116U is 0.74; for U9C A95G A118G it is 1.3; for U9G G74U G106A it is 0.05.
The figure for U9C A60G A78G is 0.22; for A11G A23G U37C it is 0.61; for U9C U12C A23C U139C it is 0.87.
The figure for U9C A69U A135G is 1.63.
Regarding A11C A60G A68G A110G, the self-cleavage stood at 0.33.
To A11G A23U A55G belongs 0.98; to U9C G31A G79A C105G U131G, 0.02; to U9C A47G U57A A94G U102C, 0.84.
To A11C A18G A91G A126U belongs 0.81.
The figure for U9C A24G A66U is 0.6.
Take A11C A68C A90G G106A: the self-cleavage was found to be 0.02.
In the case of U9C U38A U39C A135U, the self-cleavage stood at 1.99.
The figure for U9C G28A U39C C71A is 0.68; for C10U A13G A86G A111C it is 0.06; for A11G A22U U139C it is 0.51.
The figure for A11G A33G U127A is 1.3; for U9C U19A A68C A91G A92G A118G it is 1.16; for A11G A55G U57C G93A A94G A95G U103C it is 0.47.
The figure for A11G A22G A89U is 2.19; for U9C U12A U39C A59G A86G U120A U130C it is 0.57; for U9C U43C A66U it is 1.26.
On to U9C A51G A69G U100C, for which the self-cleavage is 2.75.
To U9C A66G A89G U131C belongs 1.13; to U9C A55G A82G U103C A111C, 0; to U9C A66U U70C G84A A96G, 0.69.
To U9G A36G A55G A82U A96G belongs 0.09; to U9C U19A A30G U120G A125G U130G, 0.88.
Turning to U9G U39A A89G U108G, the self-cleavage came to 0.04.
To A11G A51U U72C U131C belongs 0.21.
With U9C U97A A114G, the self-cleavage was found to be 0.33.
The figure for A11G A23U U26A U103C U108C A118G is 0.02.
U9C A92G U103C U132C A140G: the self-cleavage amounted to 0.67.
The figure for A11G A47C U87C A90G U102C U122C is 0.12; for A11G A23G A59G it is 0.68.
The figure for U9C U38C A59G is 1.15; for A11G A24G A55G U122A it is 0.9.
To U9C A51G U102C belongs 1.78; to U9C A90G U122G, 0.53.
For the variant A11G A52U A89G, the self-cleavage came out at 1.22.
To U9C A24G U38C A52G belongs 0.15; to A11G A24G U100C A118G U130C, 1.3.
To U9C U87A U130C belongs 2.34; to A11G A33G A118G U139C, 0.53; to U9C A78G A96G U97C U102C, 0.17.
As for U9G A27G A59G U87C A92G U97A, the self-cleavage came to 1.08.
To A11G A54G G75A A116U belongs 0.01.

For the origin of these results see the RNAGym collection of RNA variant scans (doi:10.7554/elife.90254).
